Test results published in the supplement of paper PMC8512760.
Some of the results follow. Most values come without repeats; read them as rough.

Key:
Experiment in all cases: cell viability relative to vehicle (% of vehicle); basal-like triple-negative breast cancer lines; higher = less cytotoxic
Conditions in all cases: 10 µM; 72 h
HCC-1143 = test system: HCC-1143
HCC-1187 = test system: HCC-1187
MDA-468 = test system: MDA-468
SUM-149 = test system: SUM-149
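Also: stably firefly luciferase-GFP labeled cells in 96-well plates, viability read as luciferase photon flux after d-luciferin addition, treated wells normalized to vehicle wells, single-dose high-throughput screen.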

Row | Compound | cell viability (HCC-1143) | cell viability (HCC-1187) | cell viability (MDA-468) | cell viability (SUM-149)
1 | OCC(O)C(O)C(O)CO (stereo unspecified) [Xylitol] | 81 | 82 | 114 | 109
2 | CC(=O)NC1C(N=C(N)N)C=C(C(=O)O)OC1C(O)C(O)CO (stereo unspecified) [Zanamivir] | 76.7 | 82.9 | 90.1 | 93
3 | CCOC(=O)C1=C[C@]2(CC)CCCN3CCc4c(n1c1ccccc41)[C@@H]32 [Vinpocetine] | 67.9 | 98.2 | 114 | 109
4 | CC(=O)OCC(CCn1cnc2cnc(N)nc21)COC(C)=O [Famciclovir] | 106 | 108 | 87.1 | 92.1
5 | CC(=O)OCC(=O)C1(O)CCC2C3CCC4=CC(=O)CCC4(C)C3C(=O)CC21C (stereo unspecified) [Cortisone acetate] | 78.8 | 79.3 | 109 | 101
6 | COc1c(N2CC3CCCNC3C2)c(F)cc2c(=O)c(C(=O)O)cn(C3CC3)c12.Cl (stereo unspecified) [Moxifloxacin HCl] | 88 | 86.7 | 91.1 | 139
7 | CCN(CC)CCNC(=O)c1c(C)[nH]c(C=C2C(=O)Nc3ccc(F)cc32)c1C [Sunitinib] | 72.8 | 61.7 | 86.3 | 61.9
8 | O=C(O)C=Cc1ccccc1 [Cinnamic acid] | 105 | 101 | 128 | 108
9 | CN(C)CCOc1ccc(C(=C(CCCl)c2ccccc2)c2ccccc2)cc1.O=C(O)CC(O)(CC(=O)O)C(=O)O [Toremifene Citrate] | 103 | 99.8 | 102 | 91.6
10 | COc1ccccc1OCCNCC(O)COc1cccc2[nH]c3ccccc3c12 (stereo unspecified) [Carvedilol] | 102 | 80.4 | 98.6 | 48
11 | CC[C@@]1(O)C(=O)OCc2c1cc1n(c2=O)Cc2cc3c(CN(C)C)c(O)ccc3nc2-1 [Topotecan] | 33.1 | 29 | 32.2 | 35.2
12 | O=C([C@H](CCC/N=C(N)/N)NS(=O)(C1=C2NC[C@H](C)CC2=CC=C1)=O)N3[C@@H](C(O)=O)C[C@H](C)CC3 [Argatroban] | 85.1 | 98.5 | 89.5 | 94.7
13 | CC(=O)N1CCN(c2ccc(OCC3COC(Cn4ccnc4)(c4ccc(Cl)cc4Cl)O3)cc2)CC1 (stereo unspecified) [Ketoconazole] | 101 | 61 | 86.2 | 130
14 | OCC(CO)NC1CC(O)(CO)C(O)C(O)C1O (stereo unspecified) [Voglibose] | 69.5 | 84.9 | 109 | 138
15 | CCN1CCN(Cc2ccc(Nc3ncc(F)c(-c4cc(F)c5nc(C)n(C(C)C)c5c4)n3)nc2)CC1.CS(=O)(=O)O | 71.4 | 71.7 | 83.2 | 116
16 | CC(c1cc2ccccc2s1)N(O)C(N)=O (stereo unspecified) [Zileuton] | 82.1 | 123 | 95.5 | 104
17 | Cl.N=C(N=C(N)N)N1CCOCC1 [Moroxydine HCl] | 75.4 | 102 | 107 | 100
18 | CN(C)CCC(c1ccccc1)c1ccccn1.O=C(O)C=CC(=O)O (stereo unspecified) [Pheniramine Maleate] | 98.5 | 93.7 | 115 | 103
19 | Cc1ccnc2c1NC(=O)c1cccnc1N2C1CC1 [Nevirapine] | 90.4 | 124 | 119 | 96.8
20 | CCCN(CCC)CCc1cccc2c1CC(=O)N2.Cl [Ropinirole HCl] | 80.3 | 85.3 | 114 | 119
21 | CN(CC=CC#CC(C)(C)C)Cc1cccc2ccccc12.Cl [Terbinafine HCl] | 99.2 | 83.3 | 104 | 109
22 | CCN1CCN(C(=O)NC(C(=O)NC2C(=O)N3C2SC(C)(C)C3C(=O)[O-])c2ccccc2)C(=O)C1=O.[Na+] (stereo unspecified) [Piperacillin Sodium] | 99.8 | 99.4 | 108 | 94.2
23 | CC12C=CC(=O)C=C1CCC1C3CC(O)C(O)(C(=O)CO)C3(C)CC(O)C12F (stereo unspecified) [Triamcinolone] | 75.8 | 87.6 | 155 | 185
24 | COc1ccc(C2CNC(=O)C2)cc1OC1CCCC1 (stereo not drawn) [S- (+)-Rolipram] | 113 | 65.5 | 98.7 | 108
25 | CN(C)c1nc(N(C)C)nc(N(C)C)n1 [Altretamine] | 78.6 | 97.4 | 81.7 | 81
26 | CC(=O)OC1(C(C)=O)CCC2C3C=C(Cl)C4=CC(=O)C5CC5C4(C)C3CCC21C (stereo unspecified) [Cyproterone Acetate] | 84.5 | 108 | 109 | 105
27 | CN(C)CC(c1ccc(O)cc1)C1(O)CCCCC1 (stereo unspecified) [Desvenlafaxine] | 69.6 | 99.6 | 108 | 98.6

Row | Compound | cell viability (HCC-1143) | cell viability (HCC-1187) | cell viability (MDA-468) | cell viability (SUM-149)
28 | CC[C@@H]1/C=C(\C)C[C@H](C)C[C@H](OC)[C@H]2O[C@@](O)(C(=O)C(=O)N3CCCC[C@H]3C(=O)O[C@H](/C(C)=C/[C@@H]3CC[C@H](Cl)[C@H](OC)C3)[C@H](C)[C@@H](O)CC1=O)[C@H](C)C[C@@H]2OC [Pimecrolimus] | 110 | 86.1 | 66.1 | 90.2
29 | CO[C@@]1(NC(=O)[C@H](C(=O)[O-])c2ccc(O)cc2)C(=O)N2C(C(=O)[O-])=C(CSc3nnnn3C)CO[C@@H]21.[Na+].[Na+] [Moxalactam (sodium salt)] | 111 | 103 | 109 | 108
30 | CN1CCCC[C@H]1CCN1c2ccccc2Sc2ccc(S(C)=O)cc21.O=S(=O)(O)c1ccccc1 (stereo partly specified) [Mesoridazine Besylate] | 79.3 | 86.3 | 116 | 145
31 | CNCCC(Oc1ccc(C(F)(F)F)cc1)c1ccccc1.Cl (stereo unspecified) [Fluoxetine HCl] | 83.6 | 74.2 | 71.5 | 70
32 | CCCc1cc(C(N)=S)ccn1 [Protionamide] | 77.5 | 71.9 | 98.2 | 110
33 | COc1ccccc1OCC(O)CO (stereo unspecified) [Guaifensin] | 89 | 76.8 | 99.5 | 107
34 | CC(C)C(=O)OCC(=O)[C@@]12O[C@H](C3CCCCC3)O[C@@H]1C[C@H]1[C@@H]3CCC4=CC(=O)C=C[C@]4(C)[C@H]3[C@@H](O)C[C@@]12C [Ciclesonide] | 67.2 | 103 | 33.6 | 115
35 | c1cn2cc(-c3ccc4cn[nH]c4c3)nc(Nc3ccc(N4CCOCC4)cc3)c2n1 | 35.1 | 35.6 | 41.8 | 39.8
36 | CC(C)Cn1cnc2c(N)nc3ccccc3c21 [Imiquimod] | 78.8 | 104 | 115 | 97.6
37 | COc1nc(N)nc2c1ncn2C1OC(CO)C(O)C1O (stereo unspecified) [Nelarabine] | 81.8 | 89 | 80.9 | 98
38 | CCC(C)C(=O)OC1CC(O)C=C2C=CC(C)C(CCC(O)CC(O)CC(=O)[O-])C21.[Na+] (stereo unspecified) [Pravastatin sodium] | 98.5 | 87.7 | 106 | 112
39 | CC(C)CC(NC(=O)C(NC(=O)c1cccc(-c2ccccc2)n1)C(C)O)B(O)O (stereo unspecified) | 21.5 | 13 | 17.2 | 33.2
40 | COc1cc(C=CC(=O)CC(=O)C=Cc2ccc(O)c(OC)c2)ccc1O [Curcumin] | 94.6 | 99 | 90 | 126
41 | CCOC(=O)C1=C(C)NC(C)=C(C(=O)OCC)C1c1ccccc1C=CC(=O)OC(C)(C)C [Lacidipine] | 79.6 | 80.3 | 111 | 136
42 | CCOC(=O)c1ccc(N)cc1 [Benzocaine] | 131 | 138 | 112 | 115
43 | CC1CC2C3CCC4=CC(=O)C=CC4(C)C3(Cl)C(O)CC2(C)C1(OC(=O)c1ccco1)C(=O)CCl (stereo unspecified) [Mometasone furoate] | 77.1 | 106 | 170 | 185
44 | CCC(=O)NCCC1CCc2ccc3c(c21)CCO3 (stereo unspecified) [Ramelteon] | 88.3 | 89.1 | 86.4 | 107
45 | CN(C)CCC=C1c2ccccc2CCc2ccccc21.Cl [Amitriptyline HCl] | 78.2 | 105 | 93.3 | 73.2
46 | CCOC(=O)OC1(C(=O)OCCl)CCC2C3CCC4=CC(=O)C=CC4(C)C3C(O)CC21C (stereo unspecified) [Loteprednol etabonate] | 121 | 129 | 135 | 159
47 | O=c1ccc2ccc(OCCCCN3CCN(c4cccc5sccc45)CC3)cc2[nH]1 [Brexpiprazole] | 113 | 96.8 | 103 | 116
48 | O=NN(CCCl)C(=O)NC1CCCCC1 [Lomustine] | 77.4 | 98.8 | 102 | 93.3
49 | CC(=O)N(CC(O)CO)c1c(I)c(C(=O)NCC(O)CO)c(I)c(C(=O)NCC(O)CO)c1I (stereo unspecified) [Iohexol] | 98.8 | 95.7 | 122 | 107
50 | Cl.NC12CC3CC(CC(C3)C1)C2 [Amantadine HCl] | 90.9 | 109 | 105 | 111
51 | Nc1ccn(C2OC(CO)C(O)C2O)c(=O)n1 (stereo unspecified) [Cytarabine] | 74.3 | 76.1 | 79.1 | 191
52 | CON=C(C(=O)NC1C(=O)N2C(C(=O)O)=C(CSC(=O)c3ccco3)CSC12)c1csc(N)n1.Cl (stereo unspecified) [Ceftiofur HCl] | 71.6 | 73.8 | 107 | 136
53 | NCCS(=O)(=O)O [Taurine] | 69.4 | 88.4 | 91.7 | 92.9
54 | CC1OC(n2cc(F)c(=O)[nH]c2=O)C(O)C1O (stereo unspecified) [Doxifluridine] | 64.2 | 78.9 | 88.4 | 85.7
